# Results published in PubChem BioAssay AID504466 (National Center for Advancing Translational Sciences (NCATS), 2011).
# Screen size: about 330,000 compounds; about 4,200 (1.3%) were called active. Inconclusive results, whose numbers are uncertain, are shown with a selection of clear calls. Calls follow the shape of the dose curve; as a rule, active = well fitted activation curve with a large enough effect; inconclusive = small, poorly fitted or top-dose-only effect; inactive = no such curve, though single readings can be large or run the other way. A potency beside an inconclusive call is a rough fit, not a confirmed value.
# Test: qHTS screen for small molecules that induce genotoxicity in human embryonic kidney (HEK293T) cells expressing luciferase-tagged ELG1; also: nearly all actives have a fitted effect of over 60% in size
# Conditions: HEK293T ELG1-luciferase reporter, luminescence, 16 h; series mostly up to 46 µM
# Summary of the method: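 Step 1: seed 2,000 HEK293T ELG1-luciferase cells per well. Step 2: add compound or DMSO, incubate 16 hr at 37 °C. Step 3: ONE-Glo, 30 min at room temperature, read luminescence.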
# Potency is read from the fitted curve at half-maximal effect; tags tell the direction and shape of the fitted curve.
row,SMILES,Potency
1,CC1=C(C(=O)N2CCOCC2)C(c2ccc(OC(F)F)cc2)NC(=S)N1c1ccccc1 (stereo not drawn),inactive
2,CC(c1nccs1)N(C)C(=O)c1cn(Cc2cccc3ccccc23)nn1 (stereo not drawn),inactive
3,COc1ccc(NC(=O)c2cccnc2Nc2ccc(OC)cc2)cc1,inactive
4,COc1cc2sc3cc(NCC[C@@H]4CCCN4C)ccc3c(=O)c2cc1OC,"inconclusive: 11.6 µM [activator, partial curve]"
5,O=C(COC(=O)/C=C/c1cc(Br)ccc1F)NC1CC1,inactive
6,Cc1nc2cc(NC(=O)Nc3nccs3)ccc2n1C,active: 2.59 µM
7,CCCCCn1nc(C)c(/C=N/NC(=O)c2ccoc2C)c1C,"inconclusive: 13 µM [activator, partial curve, poor fit]"
8,Cc1nc2sc(-c3ccccc3)cc2c(=O)[nH]1,active: 0.58 µM
9,Cc1cc(/C=C2\C(=N)N3C(SCc4ccccc4)=NSC3=NC2=O)c(C)n1Cc1ccccc1,inactive
10,CCOc1ccc(NC(=NCc2ccc3c(c2)OCO3)SC2CC(=O)N(c3ccc(OCC)cc3)C2=O)cc1 (stereo not drawn),"inconclusive: 32.6 µM [activator, partial curve, poor fit]"
11,COc1ccc(-c2nc(C#N)c(NCc3cccnc3)o2)cc1OC,"inconclusive: 16.4 µM [activator, partial curve, poor fit]"
12,Cn1c(Nc2ccccc2)nc2ccccc21,inactive
13,O=C(Nc1ccc2c(c1)OCCO2)c1cc2ccccc2o1,"inconclusive: 0.517 µM [activator, full curve]"
14,Cc1cccc(C)c1NC(=O)CNC(=O)c1ccc(NS(=O)(=O)c2ccc3[nH]c(=O)[nH]c3c2)cc1,inactive
15,CSc1ccccc1NC(=O)c1cc(CC(C)C)on1,active: 20.6 µM
16,O=C(COc1ccc(S(=O)(=O)NCc2ccccc2)cc1Cl)NCc1ccncc1,inactive
17,CCc1nc2ccc(C(=O)O)cc2nc1CC,"inconclusive: 7.31 µM [activator, partial curve]"
18,COc1cccc2cc(C(=O)NCc3ccccc3)c(=N)oc12,inactive
19,C=CCSc1n[nH]c(-c2ccc(OCCCC)cc2)n1,active: 18.4 µM
20,O=C(O)c1ccc(N/N=C/c2cn(-c3ccccc3)nc2-c2cccs2)cc1,"inconclusive: 1.03 µM [activator, partial curve]"
21,Cc1cc(C)c(N=Cc2c(O)c3ccccc3oc2=O)c(C)c1,"inconclusive: 20.6 µM [activator, single point]"
22,CCCOc1ncnc2c1[nH]c1ccccc12,inactive
23,CCc1ccc(C(=O)NCC2COc3ccccc3O2)o1 (stereo not drawn),"inconclusive: 9.2 µM [activator, partial curve, poor fit]"
24,O=C(O)c1ccc(N/N=C/c2cccc(F)c2)cc1,"inconclusive: 2.59 µM [activator, partial curve]"
25,O=C(/C=C/c1ccco1)NC(=S)Nc1ccc(O)c(-c2nc3ccccc3s2)c1,"inconclusive: 14.6 µM [activator, partial curve]"

row,SMILES,Potency
1,Cc1occc1-c1nnc(SCC(=O)Nc2nc(-c3ccccc3)cs2)o1,"inconclusive: 15.8 µM [activator, partial curve, poor fit]"
2,COc1ccc(-c2csc(-c3ccc(O)cc3)n2)cc1,"inconclusive: 29.1 µM [activator, single point]"
3,Cc1cc(C)n2c(Br)c(CSc3nc4ccccc4o3)nc2n1,"inconclusive: 20.6 µM [activator, partial curve, poor fit]"
4,O=C(O)c1ccccc1SCc1cn2cc(Cl)ccc2n1,"inconclusive: 29.1 µM [activator, single point]"
5,CC(=O)Nc1ccc(NC(=O)Nc2ccc(C)c(C)c2)cc1,"inconclusive: 20.6 µM [activator, single point]"
6,COc1ccc2oc(C(=O)NNC(=O)c3ccc(F)cc3)c(C)c2c1,"inconclusive: 25.9 µM [activator, single point]"
7,NC(=O)COc1ccc2cc(-c3ccccc3)c(=O)oc2c1,"inconclusive: 14.6 µM [activator, partial curve, poor fit]"
8,CC(NC(=O)c1csc2ccccc12)C1CCCO1 (stereo not drawn),"inconclusive: 11.2 µM [activator, partial curve, poor fit]"
9,Cc1cc(C)nc(Sc2nc(Cl)nc(N(c3ccccc3)c3ccccc3)n2)n1,"inconclusive: 32.6 µM [activator, partial curve, poor fit]"
10,COc1ccc2c(c1)[nH]c1c(=O)n(CC3CCCO3)cnc12 (stereo not drawn),"inconclusive: 16.4 µM [activator, single point]"
11,CCOC(=O)c1cc([N+](=O)[O-])c([N+](=O)[O-])cc1NC(C)=O,inactive
12,Cc1nn(-c2ccccc2)c(Cl)c1/C=N/NC(N)=O,"inconclusive: 20.6 µM [activator, partial curve, poor fit]"
13,COc1cc(C(=O)Nc2ccc3ccccc3c2)cc(OC)c1OC,"inconclusive: 7.3 µM [activator, partial curve, poor fit]"
14,COc1ccc(NC(=O)CN(C)C(=O)CSc2nc3ccccc3s2)cc1,"inconclusive: 25.9 µM [activator, partial curve, poor fit]"
15,COc1ccc(C2=NOC(C(=O)N3CCN(C(=O)c4ccco4)CC3)C2)cc1OC (stereo not drawn),inactive
16,COC(=O)c1ccc(NC(=O)c2ccc3c(c2)OCO3)cc1,active: 6.51 µM
17,N#Cc1ccsc1NC(=O)COc1ccc(-c2nnco2)cc1,"inconclusive: 11.2 µM [activator, partial curve, poor fit]"
18,CCOC(=O)c1c(C)sc2c1N(C(C)=O)c1cc(Cl)ccc1S2,inactive
19,CC(c1ccco1)N(C(=O)COc1ccc(Cl)cc1Cl)c1ccccn1 (stereo not drawn),active: 2.31 µM
20,CCc1nnc(NC(=O)CSc2ccc(-c3nc4ccccc4[nH]3)cn2)s1,"inconclusive: 20.6 µM [activator, partial curve, poor fit]"
21,CC1CCC/C(=C\Nc2ccc3c(c2)OCO3)C1=O (stereo not drawn),active: 10.3 µM
22,COc1cc(CN2CCc3ccccc3C2)ccc1O,"inconclusive: 29.1 µM [activator, single point]"
23,C(#Cc1ccccc1)Cn1nnc2ccccc21,"inconclusive: 10.3 µM [activator, partial curve, poor fit]"
24,COc1ccccc1N1CCN(C(=O)c2sc3nc(-c4ccc(F)cc4)cn3c2C)CC1,inactive
25,CC(=O)c1ccc(NC(=O)c2sc3nc(C)c(C)c(C)c3c2N)cc1,active: 3.66 µM

row,SMILES,Potency
1,CN1CCN(C(=O)c2ccc(-c3cccs3)s2)CC1,"inconclusive: 10.3 µM [activator, partial curve]"
2,CCCC(=O)Nc1ccc2oc(-c3ccc(OC)c(Br)c3)nc2c1,"inconclusive: 18.4 µM [activator, single point]"
3,O=[N+]([O-])c1ccccc1OCc1nc(-c2cccs2)no1,"inconclusive: 6.51 µM [activator, partial curve]"
4,CC1CCN(C(=O)CSc2nc3ccccc3[nH]2)CC1,"inconclusive: 9.2 µM [activator, partial curve]"
5,O=C(Nc1ccc2nccnc2c1)c1ccco1,"inconclusive: 20.6 µM [activator, partial curve, poor fit]"
6,COc1ccc(-c2cc(C(=O)NCc3cccs3)no2)cc1,"inconclusive: 10.3 µM [activator, partial curve, poor fit]"
7,COc1ccccc1C(=O)Nc1nnc(SCC(=O)NCC2CCCO2)s1 (stereo not drawn),"inconclusive: 29.1 µM [activator, single point]"
8,O=C(/C=C/c1c(F)cccc1Cl)N1CCOCC1,"inconclusive: 29.1 µM [activator, single point]"
9,O=C(COC(=O)c1ncc(Cl)c(Cl)c1Cl)NCCc1ccccc1,inactive
10,O=C(/C=C/Nc1ccccc1)c1ccc(Cl)cc1Cl,active: 0.92 µM
11,CCN(CC)S(=O)(=O)c1ccc2[nH]c(=O)cc(C(=O)Nc3ccc(C)cc3)c2c1,"inconclusive: 29.1 µM [activator, partial curve, poor fit]"
12,O=C(Cn1ncc(Cl)c(Cl)c1=O)N1CCc2ccccc21,"inconclusive: 6.51 µM [activator, single point]"
13,COc1ccc(-c2nc(CCl)cs2)cc1,"inconclusive: 23.1 µM [activator, partial curve, poor fit]"
14,CCc1ccc(N2Cc3ccccc3C2)cc1,"inconclusive: 6.51 µM [activator, partial curve]"
15,CCCCCOC(=O)NCCOC(=O)Nc1ccc(C(=O)OCC)cc1,inactive
16,CC(=O)c1cccc(NC(=S)NC(=O)c2ccccc2)c1,"inconclusive: 14.6 µM [activator, partial curve]"
17,C/C(=N\Nc1ccc(Cl)c(C(=O)O)c1)c1ccc(N2CCOCC2)cc1,"inconclusive: 18.3 µM [activator, single point]"
18,Cc1ccc(C)c(-c2csc(NC(=O)C3=COCCO3)n2)c1,"inconclusive: 29.1 µM [activator, single point]"
19,Cc1ccc2cc3cc(C(=O)N4CCCCCC4)oc3nc2c1,active: 0.731 µM
20,O=C(CN(Cc1ccco1)C(=O)CNS(=O)(=O)c1ccccc1)NCc1ccc(F)cc1,active: 18.4 µM
21,COc1ccc(C(=O)/C(=C/N(C)C)S(=O)(=O)c2ccccc2)cc1,"inconclusive: 18.3 µM [activator, single point]"
22,CC(C)OC(=O)CC(=O)CSc1nc2c(cc1C#N)CCCCC2,active: 14.6 µM
23,CN(C)Cc1c(O)ccc2cc(-c3nc4ccccc4n3C)c(=O)oc12,"inconclusive: 29.1 µM [activator, single point]"
